# Measurements as given in the supplement of paper PMC11417369.
# ± gives the standard deviation of the averaged measurements. This is one part of the list.
# Tested on: PfAP2-EXP AP2 domain (GST-tagged)
# Assay: gcPBM binding intensity (ln(normalized median fluorescence intensity)); higher = stronger DNA binding
# In short: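 An Agilent 4 × 180k array of primer-extended double-stranded 36-bp intergenic genomic probes, with negative controls, was incubated for 1 h with GST-tagged P. falciparum DNA-binding domains expressed in E. coli. Alexa488 anti-GST antibody detected bound protein, scanned at 488 nm. Binding intensity is the highest Masliner-normalised natural-log median intensity across replicate spots of either probe orientation.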
row,Sequence,gcPBM binding intensity (ln)
1,ACAAGTTAAAATATTACACACATATAAATATTTATA [CACACA_site7467],8.33 ± 0.38
2,AGTAATAGTTTGTGCACACTCAAGTATATCATAGAT [CACACA_site6082],8.93 ± 0.085
3,ATTTTTGTAAATACATGTACATATATATGCATATCC [XGTACX_site6353],8.96 ± 0.35
4,TTTCGCTTTATTTATGCATGCAAATAAGTTGATATT [TGCATGCA_site724],10 ± 0.38
5,TACATATATACATACACACACATATAACCAATGTAG [CACACA_site2192],8.78 ± 0.34
6,AAATTAATGAAATATACACACATATATAAATATATA [CACACA_site4378],8.22 ± 0.33
7,AAATTAAAGATAAAAGTGCAAAATTATAAATTTATT,8.63 ± 0.26
8,AAATTTTTTAATTTTTCTCATTTAATTTAAAAATTA [GTGCAC_negctrl_site155],8.3 ± 0.44
9,TATATATAACATTGTACACACAAAGAAATAATATTA [CACACA_site3035],8.69 ± 0.39
10,ATAAGCATCTGGATATGTACTTATTCCTTTAAAGAT [XGTACX_site6225],8.54 ± 0.38
11,AAAAGTATATATTCAGTGCATAGTCTTTAAATATAA [GTGCAC_site9522],8.47 ± 0.2
12,TATTAAAAATATTATGTACACACATTTTAGATATTT [CACACA_site8549],8.3 ± 0.13
13,AACAAGTTGCATGGTGCACACATGTATTTATATCTA [CACACA_site5414],9.16 ± 0.2
14,ATAAAAAAGCAACATCATATGTTTTTATAGAGTATT [CACACA_negctrl_site745],8.32 ± 0.4
15,ATATAAATAAAAAAAAAAAAAAAAAAAAAAAAAAAA [CACACA_negctrl_site972],8.01 ± 0.43
16,TATGCTACATTATATGTACACACATATACATATATA [CACACA_site8199],8.55 ± 0.26
17,ATTTATACGTAATATGCATAAATATAAATATATATA [XGTACX_negctrl_site133],8.57 ± 0.31
18,TTTCTTTCTTTCTTTTTTTAAATATTTTTTAAAAAT [TGCATGCA_negctrl_site206],8.71 ± 0.49
19,TTAAAATTTTAAAAATTTTAATTTTACAAAAAAAAT [TGCATGCA_negctrl_site227],8.06 ± 0.33
20,AATAGTGTATAAATTTGTACATATAATTAAAAGGAA [XGTACX_site1143],8.84 ± 0.35
21,AACTTGTGTGGATATTGTACTAACAATATGTATGAT [XGTACX_site6302],8.86 ± 0.42
22,TTATTCGAACAAAGGAAAAAATATATTCAAAGGAAA [TGCATGCA_negctrl_site215],8.64 ± 0.75

row,Sequence,gcPBM binding intensity (ln)
1,ATTCATAAAAAGAGGTGTACATTAATATAATATATA [XGTACX_site8283],8.62 ± 0.35
2,AATAACTTTTTGAGATGTACATTTTTAATTCGTAGA [XGTACX_site8455],8.35 ± 0.4
3,TTTTTAACTAACATATCAATTCCATACGTCGTCAAA [CACACA_negctrl_site560],8.46 ± 0.52
4,GGATTTATTTTATATACACACATACCTATATTTATA [CACACA_site7084],8.48 ± 0.16
5,ACTTTAATAATTCACTTATTTTCTTATTATATTATT [CACACA_negctrl_site556],8.86 ± 0.28
6,TTTAAAAATTTGATCAAACACACGTTGCATAAATTA [CACACA_site3945],8.87 ± 0.47
7,ATAAATTGTAAAATGTGTACGCAGATATTGCGTATT [XGTACX_site332],8.55 ± 0.2
8,ATAATATAAACATACACACACACATATATATATATA [CACACA_site5591],10 ± 0.41
9,AAAACAAAAATATAAACACACATACATTGGTTTTCT [CACACA_site5405],8.34 ± 0.33
10,AGGATATGCAGACACACACACATATAGATTTATATA [CACACA_site7100],8.41 ± 0.48
11,TCTATATAATACCAATGTACATAGTTTTAAGCATAA [XGTACX_site1889],8.63 ± 0.47
12,TTTTGTCTTCAAATCAAATGTATATAAAAAAAATAC [CACACA_negctrl_site1717],8.47 ± 0.4
13,CTTTAATATTTTATTTCACACACATAAATGCCCCAA [CACACA_site8569],8.79 ± 0.47
14,AACAAGAAATAATCACGTACACATTATAATAACTAA [XGTACX_site8184],8.57 ± 0.54
15,AAAATTAAAATAGTAATACACACTTCATAGGAAATG [CACACA_site1762],8.36 ± 0.4
16,AAAAAAAAAAAAAAAAAAAAAAAAAAAAGTTAAAAA [TGCATGCA_negctrl_site74],9.105 ± 0.078
17,TGATATTATTATAAGGTGCTTAAAAATAAAGATAAT [GTGCAC_site9539],8.58 ± 0.18
18,AAAAAAAAAGATCACACACACATAAATATAAACAAA [CACACA_site5285],8.48 ± 0.26
19,TAAAATATTGTTATTACATGCAACCTTATGAAAAAT [TGCATGCA_site706],8.94 ± 0.17
20,ATATAAAATAATAAGGGTACAGGTCTCTGCGATGTT [XGTACX_site786],8.54 ± 0.46
21,ACTCGCATATTTAAATGTACTTAATTAGAAGAAAAA [XGTACX_site3304],8.66 ± 0.22
22,AGAATTTTAGATTTAGCACACATTTTTTTTTTTTTT [CACACA_site4081],8.3 ± 0.33

row,Sequence,gcPBM binding intensity (ln)
1,TTTTTTTGCCATATTACACACACACCGGTAAACCCC [CACACA_site8475],9.46 ± 0.53
2,TATAAATAAATAAACACACACAAATAAAATAAAAAA [CACACA_site7623],8.77 ± 0.4
3,ACATATTAGGGTCATGAACACACAAAAAAAAAAAAA [CACACA_site8218],8.46 ± 0.53
4,TTTATTTATTTATTCTTATTTTTTTTTTTTTTTACT [CACACA_negctrl_site257],8.35 ± 0.52
5,AATTCAGCTTTACAACGTACACAATCATATGTCTAT [XGTACX_site8113],8.77 ± 0.4
6,ATGAAGATTTAAAAATGTACATATGATCTATGTCCT [XGTACX_site8409],8.38 ± 0.36
7,TAATACATAAATGATTGTACATAAGAATTGAAACAT [XGTACX_site4583],8.72 ± 0.34
8,TCTAGGAAAAATTATAGTACACAAAAATATATATAT [XGTACX_site4136],9.37 ± 0.2
9,TTATATGCACTTTTTGCACACGTATGAATAACAAAA [CACACA_site1811],8.93 ± 0.11
10,ATATATACATATACTATATCTTTTATTTTTATTATT [GTGCAC_negctrl_site127],8.29 ± 0.15
11,TATGACACTTTGAAGGGTACATGCAGAAAAAAAAAA [XGTACX_site569],9.17 ± 0.18
12,TATATATATTAAAAACGTACAAAATAAGAATTAATT [XGTACX_site5979],8.94 ± 0.47
13,GGATATATTTTATGTACACACACATATAAGGGATTA [CACACA_site4181],8.54 ± 0.33
14,CATAAAAATGGATACACACACATAATATATATATAT [CACACA_site3619],9.81 ± 0.3
15,TAATTTTTTTTTTATTGTACTTAATATTTTTAATTT [XGTACX_site5929],8.4 ± 0.34
16,AAAAAAATTAATGTGTGTACTTAGATATAATGTTTA [XGTACX_site8862],8.3 ± 0.39
17,TTACAAATATTATAAAGTACAAACCAGTAGATTTTG [XGTACX_site2272],8.27 ± 0.42
18,TTTTTTTTTTTTAAAAGTACATAGTAGTAATTATAG [XGTACX_site4232],8.09 ± 0.29
19,TCATTCTAAATATAAACACACATAAATATGTACATT [CACACA_site7555],8.56 ± 0.42
20,TATTTTTTTTTTTTTTTTTTTACCTTTCCACTCAAA [CACACA_negctrl_site1454],8.2 ± 0.5
21,ATTATATATACATATACACACATACGTACATACATA [CACACA_site9194],8.8 ± 0.4
22,GTGAAGGTTTATATGTGTACATATATGTATTATATA [XGTACX_site326],8.63 ± 0.3

row,Sequence,gcPBM binding intensity (ln)
1,ATTTCATACAGACACACACACAAACAAACATATATA [CACACA_site979],8.93 ± 0.63
2,TTTAATAAATTGTGTACACAAAACATATAAATTTCG [CACACA_site5644],8.69 ± 0.19
3,GACATTTCTTGGGATACATGCATGTCCCAGAACAAA [TGCATGCA_site271],9.14 ± 0.39
4,TTTTTTTTTTTTAATGCACACAGTGAACTTTTACTT [CACACA_site3567],8.56 ± 0.18
5,ATTATCAAGACATTGCGTACTTAAAAAAAAAAAAAT [XGTACX_site6347],8.51 ± 0.4
6,CATATATAATAATATTGTACATATATAATAATAATA [XGTACX_site3338],8.4 ± 0.35
7,TTATTATTCATATATTCACACATTAAAATTTTTCAA [CACACA_site4243],8.38 ± 0.4
8,TGTATACATAATATTTGTACATATTGTTATATATAT [XGTACX_site740],8.57 ± 0.23
9,AATATATATAATAATTGTACAATACGTATGTTATAT [XGTACX_site8745],8.87 ± 0.45
10,TCCTATATCACAAATGTGCACAGAAAAAAAAAATAT,9.1 ± 0.29
11,ATATATATATACATACGTACACACAAATATTAAAAT [XGTACX_site4007],9.935 ± 0.078
12,TTATAAAAAAAAAAAAAAAAGAAAATGAATTCACGA [CACACA_negctrl_site1248],8.29 ± 0.43
13,TGTTATATATTATATACATGCACAAAAGCAACACAA [TGCATGCA_site1009],9.04 ± 0.22
14,ATTTTATTTTTTGAGTGTACTAGTTCAACAACTCCG [XGTACX_site8600],8.72 ± 0.52
15,TTCGACGAGAGCAAGTGTACTCTTGAATAATTTATA [XGTACX_site7613],8.31 ± 0.39
16,ATAATATATATATGTAGTACGTATATAATTTTAATA [XGTACX_site5228],8.45 ± 0.39
17,ATATTTATGACCGTACGTACCTAACAATACAATCAA [XGTACX_site4511],8.67 ± 0.099
18,TGAATTTCAAAACAGTGTACATTAATATATATATAA [XGTACX_site7951],8.57 ± 0.39
19,AATTAAAATTTTTTTTTTTTTTTTTTTTTTCTATTA [CACACA_negctrl_site1585],7.87 ± 0.58
20,AAAAATAAAAAAAACACACATACCTTATTTTTGTTC [CACACA_site2634],8.98 ± 0.73
21,AAATTGATATTATATATATATATATATATATATATA [GTGCAC_negctrl_site482],10 ± 0.42
22,TATATATCCTTCTATGCATGCATATGGATAGATTTC [TGCATGCA_site58],9.65 ± 0.12
